Results as given in the supplement of paper PMC11417369.
The list shows a part of the results.

These sequences were tested on PfSIP2 AP2 domain 1 (GST-tagged) (assay: gcPBM binding intensity (ln(normalized median fluorescence intensity)); higher = stronger DNA binding).
Summary of the method: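 GST-fused DNA-binding domains of P. falciparum, expressed in E. coli, were applied at about 25 μg on average for 1 h to an Agilent 4 × 180k array of primer-extended double-stranded 36-bp intergenic genomic probes and negative controls. Binding intensity is the highest Masliner-normalised natural-log median intensity across replicate spots of either probe orientation, measured with Alexa488 anti-GST antibody and a 488 nm scan.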

Row | Sequence | gcPBM binding intensity (ln)
1 | ATATTTTCTAATCAATGTACTTATTCTACACATTAA [XGTACX_site5774] | 7.15
2 | TATATTTGGAAACACACACACAAAAAAAAAAAAAAA [CACACA_site2474] | 6.99
3 | ATATTTTATGTAAAGGTGCAAAACAACATTAAAAAA | 10.5
4 | ACCCAATTTTTTAGTACACACATATAAATATATAAA [CACACA_site4944] | 7.44
5 | TAAAACATGTTTTTATATATTATTATTATATTTATA [XGTACX_negctrl_site8] | 6.83
6 | AACACATACAGACACACACACAAAAAAAAAAAAAAA [CACACA_site6322] | 7.31
7 | AAACCTTTAGAAAATCGTACAAAACATAACCACCTA [XGTACX_site1098] | 7.07
8 | ATTTTTTTTTTTTGTTTTTTCTTACAAATTAAATGA [CACACA_negctrl_site1457] | 6.92
9 | AAATAACTCATGGGTTGTACTTAAAAAAAAAAAGAT [XGTACX_site4168] | 7.15
10 | TTTTTTTTTTTTCACGTGCACTATACATATAAGTAA | 10.5
11 | CTCTTGTCATTTTGCACACACACATGGATAGGTTAT [CACACA_site5655] | 7.98
12 | ATATATACATTTCTATGTACATATGTATATATGTAT [XGTACX_site1522] | 7.18
13 | TTAATCTAGAGAAATTGTACATTTTATTAACACAAT [XGTACX_site1190] | 6.89
14 | ATAAAAGAAAACAATAGTACTTTAGTTTTTCTTTTT [XGTACX_site5686] | 6.59
15 | TATATTTTAGTTAATGCATGTGTGCATCCATTTAAA [TGCATGCA_site887] | 8.9
16 | ATACATATATATATATGTACACACATTAATAAAAAA [XGTACX_site6874] | 7.32
17 | TACCAAAATAGACACACACACAAAATATGTAAATAT [CACACA_site6963] | 6.89
18 | TATAAATAAATTTATACACACACACCCATATATATA [CACACA_site8183] | 7.39
19 | AAAAAAAAAAGACACACACACAAATACAAATGGTAA [CACACA_site6906] | 6.95
20 | TTTGTTATATTTAATACACACATATTATAAACCCAT [CACACA_site3716] | 7.38
21 | ATAAAGCCATACAATACACACATTTTACATGGCTGT [CACACA_site5756] | 6.88
22 | TAAAATTAGGAAATTGCACACAAAAAAAAACATATT [CACACA_site9349] | 6.98
23 | TAAACAAAATATATATGTACATATATATATATATAT [XGTACX_site6502] | 9.3

Row | Sequence | gcPBM binding intensity (ln)
24 | ATCTAGCCATTTTTTAGTACACATAAATAAAAAAAA [XGTACX_site1257] | 7.64
25 | CATTAATAACAAAGTTGTACAAGATAATATTATATG [XGTACX_site6832] | 7.26
26 | TTTTATTTGACAAGCACACACTTAAATATATTTATA [CACACA_site7557] | 7.25
27 | AAAACATTTTCAAACTGTACACATAGAACTATGCAT [XGTACX_site4087] | 7.05
28 | ACATAAGAAGTTATATGTACATATATTTTTTAAATT [XGTACX_site8078] | 7.12
29 | TACACAAGAAAATTCACACACACACGGATATTTATA [CACACA_site7765] | 6.88
30 | GTATCGAAGTAAATACGTACTTAAATATGTTTAAAA [XGTACX_site1353] | 6.96
31 | ACGTACTGCCCTAAAGTGCATATATAATATAAACGA [GTGCAC_site9911] | 8.48
32 | CTTTAAACCCTGAACACACACAAATACAGACAAAAA [CACACA_site247] | 7.12
33 | GTATTTTAATATAAATGTACATAAATGTTATATATA [XGTACX_site3475] | 7.16
34 | AATATTGTATATAATAAACACACAATATTAAAAATA [CACACA_site8262] | 6.99
35 | CATATATAAATCATGTGTACGTATTGAGTATCTACT [XGTACX_site6278] | 7.34
36 | AGGATATATAATTAAGTGCATTAATTCAAAATAAAA [GTGCAC_site9702] | 8.36
37 | TTATTATTTTATAACACACACATATATATTATATCT [CACACA_site1434] | 7.02
38 | ATAAGATATGTATATACACACATTTATTTACCTATA [CACACA_site7521] | 7.02
39 | ATATGACTTAAATATGTGCGCATTTTTTTTTTTTTT | 7.45
40 | TATGGAAGAAAATATACACACAAAAAAAAAAAATGT [CACACA_site1486] | 6.96
41 | ATACTTTTATTTTTGGTGCATATATCATGTAGACGT | 10.2
42 | AATTTATTATTTGTATGTACTCATATGATTCACTTA [XGTACX_site2797] | 7.07
43 | AAATGAAATAAATGTAGTACACATATACAATATATA [XGTACX_site6951] | 6.96
44 | TATTTTTATACAATTTAACACGGGTTATAAAATGTA [CACACA_negctrl_site566] | 6.8
45 | TGTATATCATATATTTGTACTCAATTAATATAAACA [XGTACX_site3970] | 6.99
46 | ACATCTAATTTGTATACACACAATAATAAATGGTGA [CACACA_site824] | 7.11

Row | Sequence | gcPBM binding intensity (ln)
47 | TATATATATTTATAATGTACATATTTTTTTTTATTT [XGTACX_site4761] | 7.41
48 | TTGTATATATGACTTTTTTATATTTCAATTTTGTGC [CACACA_negctrl_site296] | 6.94
49 | TATTAATTTTTAAACATAATTTTTCGTATAATATAT [CACACA_negctrl_site762] | 6.74
50 | GAGATAAAATAAAACACACACATATATTTATATAAC [CACACA_site7098] | 6.89
51 | TTTACTTTCTTATTTTCACACATTTAAAAAAAAATT [CACACA_site5949] | 7.53
52 | TTCCCTTTTGTAAAATGTACATATATATTTAAACAA [XGTACX_site3263] | 7.16
53 | TTTTTATTAAAATGTATTTTAGGAAAAAACAAAAAA [XGTACX_negctrl_site437] | 6.88
54 | TAAGTTCCCTTTGAATGTACATATAATGAAAAGAAA [XGTACX_site826] | 7.17
55 | AAAAAACTTTTAAGCACACACATAGATAATATAGAT [CACACA_site6835] | 7
56 | CAACATTTGAAACACACACACATACAAACAAACAAA [CACACA_site3306] | 7.2
57 | TTTTTTTTTTTTGTCACACATATTTGTATTAATCAT [CACACA_site5235] | 7.13
58 | AATATTAACAATCGCACACATATTATTTTTCCAAAA [CACACA_site4982] | 7.14
59 | TGAAATGGAAACAACTGTACAAAATAAATATGATAT [XGTACX_site1311] | 7.19
60 | ATATAAATATAGCATACACACAAAAAAATAAAATAA [CACACA_site2333] | 7.01
61 | TTACTCATGAAAGATACACACATTCATTATATATAT [CACACA_site3252] | 7.51
62 | TATATAAACCCGTACACACACATATATGTATATATA [CACACA_site3507] | 7.26
63 | AAATTTACAATACATTGTACATATTAATAATATTCC [XGTACX_site3646] | 6.76
64 | AGACATAAGATAATTACACACAATACATCCCTATAT [CACACA_site2227] | 6.92
65 | TACTTCTACAAGAGAAGTACAATATTTTTTATATTA [XGTACX_site8351] | 6.78
66 | AATAAAAATTTACTTTGTACACATATTAAATTCAAT [XGTACX_site1957] | 6.93
67 | TGTAGTTTGTCCCATGCATGTTCCATTAAAATATAT [TGCATGCA_site854] | 7.47
68 | TTAACGTAAAATATAGTGCATAGTATCATATTGATA [GTGCAC_site9527] | 8.02
69 | CAATCAAAGAAACACACACACACCTAAACATAAAAG [CACACA_site2756] | 7.01

Row | Sequence | gcPBM binding intensity (ln)
70 | AATGTATATATGTAATGTACATATATAATGTATATA [XGTACX_site6510] | 7.04
71 | AAATGTGTTTATTTAACACACAAAAGAAAAAATATA [CACACA_site6993] | 6.82
72 | AATGTAAAATATATGTGTACATATGTTTATATATAT [XGTACX_site2216] | 7.55
73 | GTGTGTTGTATATACTGTACATACTTTATATATAGT [XGTACX_site1876] | 7.61
74 | TATAACAAGTAATGTTGTACATTGTATTATGTAATA [XGTACX_site6372] | 6.79
75 | AGATATATTATTAGGTGTACTATAAAATAAATTCAC [XGTACX_site221] | 7.17
76 | CGAACAAACAAATAAACACACAAAAAAAGATATATA [CACACA_site6944] | 6.68
77 | AAAAAAAATTAGGAAACATGCATGTCCCGATAAATA [TGCATGCA_site149] | 6.91
78 | AAAATCAAGTAGTATAAAGTAAGTATCATAAAAATA [CACACA_negctrl_site1554] | 6.89
79 | GTACACTAATTATGTGCACACAAATTAAAGGTCTAC [CACACA_site146] | 8.75
80 | ATAATAAAATGGAGAGTGCATACATGTTTATTTTAT | 8.78
81 | ACATAAAATAAATATACACACATATGTATATATTAT [CACACA_site3041] | 7
82 | ATAAAATATATATGCACACACATATATATTTCATAC [CACACA_site3547] | 7.24
83 | ATATATATATATATGTGTACTTATAAATATATCTGT [XGTACX_site4337] | 9.39
84 | AAAAGAATTTAGAAGGCATGCACTTAAACATGGATA [TGCATGCA_site699] | 7.9
85 | TAAATATTTTATTGTACACACTTTTTATGAATGATG [CACACA_site5694] | 7.2
86 | ATATCCCATATGTAATGTACTTACACTTTCTTAATT [XGTACX_site7020] | 7.02
87 | AATATTTAAAACAAATCACACATGTATCCATAAATG [CACACA_site5308] | 6.91
88 | AGGGAATAATATTAATGTACATATATGAACTTGTTT [XGTACX_site6089] | 6.85
89 | TATAAAAAGGAAAAATAAAAATAAAAATAAAAATTA [CACACA_negctrl_site1822] | 6.51
90 | TCTTTTAAAAATTAAGTGCATGTCCTTATAACAAAA | 8.65
